# Assay results: PMC9911399, “Two distinct binding modes provide the RNA-binding protein RbFox with extraordinary sequence specificity”
# Positions count from the first letter of the chain named. The list shows a part of the results.
# T1: RBFOX1 RRM (Homo sapiens, UniProt Q9NWB1 109-208)
# T1 sequence: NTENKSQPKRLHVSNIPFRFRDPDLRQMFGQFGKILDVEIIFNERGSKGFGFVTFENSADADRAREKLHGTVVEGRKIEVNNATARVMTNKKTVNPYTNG
# B1: CAUCGGU (DNA:RNA)
# RNA: GGGAGACCGGAAUUCAGAUUGUCCCAUCGGUUUAAAUCCCGUCGUAGCCACCA
# DNA 1: CAATCTGAATTCCGGTCTCCC
# DNA 2: TGGTGGCTACGACGGGATT
# B2: UCUGCAG (DNA:RNA)
# RNA: B1 RNA with C25U, A26C, C28G, G29C, G30A, U31G
# DNA 1: CAATCTGAATTCCGGTCTCCC
# DNA 2: TGGTGGCTACGACGGGATT
# B3: ACCAUGC (DNA:RNA)
# RNA: B1 RNA with C25A, A26C, U27C, C28A, G29U, U31C
# DNA 1: CAATCTGAATTCCGGTCTCCC
# DNA 2: TGGTGGCTACGACGGGATT
# B4: UCUUGAC (DNA:RNA)
# RNA: B1 RNA with C25U, A26C, C28U, G30A, U31C
# DNA 1: CAATCTGAATTCCGGTCTCCC
# DNA 2: TGGTGGCTACGACGGGATT
# B5: GCGGAGA (DNA:RNA)
# RNA: B1 RNA with C25G, A26C, U27G, C28G, G29A, U31A
# DNA 1: CAATCTGAATTCCGGTCTCCC
# DNA 2: TGGTGGCTACGACGGGATT
# B6: CAUAGGG (DNA:RNA)
# RNA: B1 RNA with C28A, U31G
# DNA 1: CAATCTGAATTCCGGTCTCCC
# DNA 2: TGGTGGCTACGACGGGATT
# B7: UAUUCGC (DNA:RNA)
# RNA: B1 RNA with C25U, C28U, G29C, U31C
# DNA 1: CAATCTGAATTCCGGTCTCCC
# DNA 2: TGGTGGCTACGACGGGATT
# B8: UUCUAUA (DNA:RNA)
# RNA: GGGAGACCGGAAUUCAGAUUGUCCUUCUAUAUUAAAUCCCGUCGUAGCCACCA
# DNA 1: CAATCTGAATTCCGGTCTCCC
# DNA 2: TGGTGGCTACGACGGGATT
# B9: CAUAACA (DNA:RNA)
# RNA: B1 RNA with C28A, G29A, G30C, U31A
# DNA 1: CAATCTGAATTCCGGTCTCCC
# DNA 2: TGGTGGCTACGACGGGATT
# B10: CCGCAGU (DNA:RNA)
# RNA: B1 RNA with A26C, U27G, G29A
# DNA 1: CAATCTGAATTCCGGTCTCCC
# DNA 2: TGGTGGCTACGACGGGATT
# B11: AGCUCAU (DNA:RNA)
# RNA: B8 RNA with U25A, U26G, A29C, U30A, A31U
# DNA 1: CAATCTGAATTCCGGTCTCCC
# DNA 2: TGGTGGCTACGACGGGATT
# B12: AACGAUA (DNA:RNA)
# RNA: B8 RNA with U25A, U26A, U28G
# DNA 1: CAATCTGAATTCCGGTCTCCC
# DNA 2: TGGTGGCTACGACGGGATT
# B13: UUGACGG (DNA:RNA)
# RNA: B8 RNA with C27G, U28A, A29C, U30G, A31G
# DNA 1: CAATCTGAATTCCGGTCTCCC
# DNA 2: TGGTGGCTACGACGGGATT
# B14: UAACCCG (DNA:RNA)
# RNA: B1 RNA with C25U, U27A, G29C, G30C, U31G
# DNA 1: CAATCTGAATTCCGGTCTCCC
# DNA 2: TGGTGGCTACGACGGGATT
# B15: UUCCUGU (DNA:RNA)
# RNA: B1 RNA with C25U, A26U, U27C, G29U
# DNA 1: CAATCTGAATTCCGGTCTCCC
# DNA 2: TGGTGGCTACGACGGGATT
# B16: GUCUGAG (DNA:RNA)
# RNA: B8 RNA with U25G, A29G, U30A, A31G
# DNA 1: CAATCTGAATTCCGGTCTCCC
# DNA 2: TGGTGGCTACGACGGGATT
# B17: GUUUUGG (DNA:RNA)
# RNA: B1 RNA with C25G, A26U, C28U, G29U, U31G
# DNA 1: CAATCTGAATTCCGGTCTCCC
# DNA 2: TGGTGGCTACGACGGGATT
# B18: CCCAGUC (DNA:RNA)
# RNA: B1 RNA with A26C, U27C, C28A, G30U, U31C
# DNA 1: CAATCTGAATTCCGGTCTCCC
# DNA 2: TGGTGGCTACGACGGGATT
# B19: UUUACUC (DNA:RNA)
# RNA: B8 RNA with C27U, U28A, A29C, A31C
# DNA 1: CAATCTGAATTCCGGTCTCCC
# DNA 2: TGGTGGCTACGACGGGATT
# B20: UAGGUUG (DNA:RNA)
# RNA: B8 RNA with U26A, C27G, U28G, A29U, A31G
# DNA 1: CAATCTGAATTCCGGTCTCCC
# DNA 2: TGGTGGCTACGACGGGATT
# B21: UAGCCAG (DNA:RNA)
# RNA: B1 RNA with C25U, U27G, G29C, G30A, U31G
# DNA 1: CAATCTGAATTCCGGTCTCCC
# DNA 2: TGGTGGCTACGACGGGATT
# B22: CCGGUAC (DNA:RNA)
# RNA: B1 RNA with A26C, U27G, C28G, G29U, G30A, U31C
# DNA 1: CAATCTGAATTCCGGTCTCCC
# DNA 2: TGGTGGCTACGACGGGATT
# B23: ACCUGCU (DNA:RNA)
# RNA: B1 RNA with C25A, A26C, U27C, C28U, G30C
# DNA 1: CAATCTGAATTCCGGTCTCCC
# DNA 2: TGGTGGCTACGACGGGATT
# B24: UCCGCGU (DNA:RNA)
# RNA: B1 RNA with C25U, A26C, U27C, C28G, G29C
# DNA 1: CAATCTGAATTCCGGTCTCCC
# DNA 2: TGGTGGCTACGACGGGATT
# B25: CAAUUGG (DNA:RNA)
# RNA: B1 RNA with U27A, C28U, G29U, U31G
# DNA 1: CAATCTGAATTCCGGTCTCCC
# DNA 2: TGGTGGCTACGACGGGATT
# B26: AUUAGAC (DNA:RNA)
# RNA: B1 RNA with C25A, A26U, C28A, G30A, U31C
# DNA 1: CAATCTGAATTCCGGTCTCCC
# DNA 2: TGGTGGCTACGACGGGATT
# B27: CAGUUGA (DNA:RNA)
# RNA: B1 RNA with U27G, C28U, G29U, U31A
# DNA 1: CAATCTGAATTCCGGTCTCCC
# DNA 2: TGGTGGCTACGACGGGATT
# B28: CUGAUAA (DNA:RNA)
# RNA: B8 RNA with U25C, C27G, U28A, A29U, U30A
# DNA 1: CAATCTGAATTCCGGTCTCCC
# DNA 2: TGGTGGCTACGACGGGATT
# B29: GUAACUA (DNA:RNA)
# RNA: B8 RNA with U25G, C27A, U28A, A29C
# DNA 1: CAATCTGAATTCCGGTCTCCC
# DNA 2: TGGTGGCTACGACGGGATT
# B30: UCGAUGG (DNA:RNA)
# RNA: B1 RNA with C25U, A26C, U27G, C28A, G29U, U31G
# DNA 1: CAATCTGAATTCCGGTCTCCC
# DNA 2: TGGTGGCTACGACGGGATT
# B31: UUUUCAG (DNA:RNA)
# RNA: B8 RNA with C27U, A29C, U30A, A31G
# DNA 1: CAATCTGAATTCCGGTCTCCC
# DNA 2: TGGTGGCTACGACGGGATT
# Target: T1, RBFOX1 RRM
# Test: EMSA; HiTS-Eq, 1 nM pool, 10 min; buffer printed only for the single-RNA assays: 10 mM Tris pH 7.5, 150 mM NaCl, 3.4 mM EDTA, 0.001% NP-40, 30 C
# Details: tags: His6 N-terminal (pET28a); label: 5' 32P
# In short: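 Purified RbFox RRM, wild type or mutant, was incubated for 10 min in 50 µL with 1 nM of a 5′-radiolabelled RNA pool carrying 7 randomized nucleotides, whose flanks were annealed to DNA oligonucleotides, over a series of increasing protein concentrations. Unbound RNA was resolved on 8% native PAGE, cut out, reverse-transcribed, barcoded by PCR and sequenced on an Illumina HiSeq 2500. Relative association constants were derived from changes in read counts for each RNA species versus the control reaction and normalised to the cognate motif.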
row,Binder,binding signal
1,B1,0.0084 KA relative to UGCAUGU
2,B2,0.0203 KA relative to UGCAUGU
3,B3,0.00513 KA relative to UGCAUGU
4,B4,0.015 KA relative to UGCAUGU
5,B5,0.0115 KA relative to UGCAUGU
6,B6,0.00214 KA relative to UGCAUGU
7,B7,0.0167 KA relative to UGCAUGU
8,B8,0.00123 KA relative to UGCAUGU
9,B9,0.00191 KA relative to UGCAUGU
10,B10,0.00716 KA relative to UGCAUGU
11,B11,0.00371 KA relative to UGCAUGU
12,B12,0.00289 KA relative to UGCAUGU
13,B13,0.0155 KA relative to UGCAUGU
14,B14,0.0031 KA relative to UGCAUGU
15,B15,0.0109 KA relative to UGCAUGU
16,B16,0.0256 KA relative to UGCAUGU

row,Binder,binding signal
1,B17,0.0186 KA relative to UGCAUGU
2,B18,0.00823 KA relative to UGCAUGU
3,B19,0.00457 KA relative to UGCAUGU
4,B20,0.0284 KA relative to UGCAUGU
5,B21,0.0132 KA relative to UGCAUGU
6,B22,0.0115 KA relative to UGCAUGU
7,B23,0.00975 KA relative to UGCAUGU
8,B24,0.0079 KA relative to UGCAUGU
9,B25,0.00654 KA relative to UGCAUGU
10,B26,0.00734 KA relative to UGCAUGU
11,B27,0.0146 KA relative to UGCAUGU
12,B28,0.00614 KA relative to UGCAUGU
13,B29,0.0032 KA relative to UGCAUGU
14,B30,0.019 KA relative to UGCAUGU
15,B31,0.0135 KA relative to UGCAUGU
